This series deals with T1, SarZ (Staphylococcus epidermidis RP62A) (UniProt Q5HLK8).
T1 sequence: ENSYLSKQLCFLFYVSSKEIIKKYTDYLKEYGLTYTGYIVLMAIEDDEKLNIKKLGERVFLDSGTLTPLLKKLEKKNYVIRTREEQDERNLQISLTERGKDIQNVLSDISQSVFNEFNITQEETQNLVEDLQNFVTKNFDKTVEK
The experiment in a line: EMSA. In general terms: Mobility shift assays separate free from complexed probe on a gel.

Consider “TTTCACCTACCTTTCGTTAGTTAGGTTGTAAAGCATATGCTAATCGAAAGTATTTCAATTTGCAATAGAATGTTGTTATACTGAAACAGTAATATTTGTAATTTTAACTTAATTTTTCTGTAATATATTTTTAGAAAATTGAATAAGGGGGAGATTTTAGAATTG (double strand) [ica operon promoter, 165 bp]”, for which the binding entry is listed as “binds”. In the case of “TAAACTATTCTCTACTCCGCCCCTCCTGTTAGAGGGGTTTTTTACGTCATTGATTGTACGACGTTGAACATAGCTCAATCAATACTATTCAAAATTCAACTGTGTAAAATGCACTCTTAAAAATGAAGTAGAACTATAGTCATAACGGCAGAATTATAAATAGTATTAGTGAAAGTATTTCTACAACGTTATCAACTTTCATCACAAAAAGACATAAAGATAAAACTGGG (double strand) [psmε promoter, 230 bp]” it was “binds”; in that of “GTGCATAGTCCCTAAATTAAAATATCAATGTCTTAAGTGAATGATTCATGTTTTTCACTCAACAGTGAGTTATTCCTAAGTGTTATTTTGTCTTTATACTGTTTACATAAGCTTTACAAAAGGATCTTTGAGTAATTAAGCTTTCAATAATCATTATTATATGATTAATTGAGTCTTATTTTGAGAAGCGTAACCATTGACACTCTTGCTCATTTAAAATATATTAATAGTATTATTCGAAAAGGTAATAACTAAGTCTTGC (double strand) [psmα promoter, 262 bp]”, “binds”; in that of “TATAACTTCACTCCTTTCGAATTAAGGTAATGGATACGAATGAATTTAACATTCACTCGACTAGATTAAGCAAATTTTTCAACTATCTTTCAATCACATCTCTGTGATATGAGTCTATTAAAACATGATTTTTCCATTTAAAGATTAAAATTTCGTAAATAGCAATATTTAGTACTCAACTGT (double strand) [psmγ promoter, 183 bp]”, “no binding”. For “CTTTTAGCAATAGGTACCTAATAAAAATTATTTATATTTTTCACTATAATAGAGGTTTTTATACATAAATGTTAATTTGATATAAAATCCTATATGTTTATATCAATAAAATAGAGTGCAATACAGTTGTGCATGCCTAACTGTTGTAAAACCTAAGAAAATTAACAGTTAGGAACTCTTAATTATTTAGTATGAAAAATGCAACAAATTGAGTCAAATTAACTTTATAGTAAAGGTAACAAAACGATAGAGATAACGAATCGCAATCGTATCCAA (double strand) [psmβ promoter, 276 bp]”, the binding result was “binds”.

Values taken from article PMC11612630.
